# Results reported in PMC6919601, “Identification of Plasmodium dipeptidyl aminopeptidase allosteric inhibitors by high throughput screening” (PLoS ONE, 2019).
# In all, about 110,000 compounds went through this assay and about 230 (0.21%) showed an effect of 50% or more. Some of the results follow.
# Molecular target: DPAP1 (Plasmodium falciparum, UniProt Q8IIJ9)
# Assay: primary screen, percent inhibition; read by cleavage of a fluorogenic dipeptide substrate; higher = more effect of the substance
# Design: species or system P. falciparum D10 trophozoite lysates; single well
# 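Also: 30 min substrate incubation versus DMSO and 10 µM JCP410 controls.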
# DPAP1, sequence (Q8IIJ9 whole entry, looked up): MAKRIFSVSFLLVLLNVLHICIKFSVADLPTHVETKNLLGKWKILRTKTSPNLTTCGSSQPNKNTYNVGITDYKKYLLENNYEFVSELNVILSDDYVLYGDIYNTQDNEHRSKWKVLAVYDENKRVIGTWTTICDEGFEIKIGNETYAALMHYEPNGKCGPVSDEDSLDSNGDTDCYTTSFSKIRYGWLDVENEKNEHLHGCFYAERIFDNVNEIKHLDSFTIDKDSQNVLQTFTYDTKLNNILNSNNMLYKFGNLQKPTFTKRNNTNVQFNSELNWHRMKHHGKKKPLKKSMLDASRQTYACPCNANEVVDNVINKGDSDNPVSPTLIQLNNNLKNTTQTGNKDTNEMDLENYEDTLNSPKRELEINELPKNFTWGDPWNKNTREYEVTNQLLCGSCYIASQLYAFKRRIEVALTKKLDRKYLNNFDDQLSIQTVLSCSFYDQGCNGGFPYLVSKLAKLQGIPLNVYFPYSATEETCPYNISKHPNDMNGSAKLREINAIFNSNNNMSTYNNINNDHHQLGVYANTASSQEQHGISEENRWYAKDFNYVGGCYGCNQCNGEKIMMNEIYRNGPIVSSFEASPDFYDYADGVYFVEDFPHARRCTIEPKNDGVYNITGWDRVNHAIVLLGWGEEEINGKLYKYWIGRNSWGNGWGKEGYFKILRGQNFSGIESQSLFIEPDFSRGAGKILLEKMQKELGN
row,SMILES,% Inhibition @ 10 uM [%]
1,COc1ccc(C(=O)N2CCC(C(=O)Nc3c(F)cccc3F)CC2)cc1OC,4.08
2,CCOc1cc(Cl)c(C(C)NC(=O)c2cccnc2)cc1OCC (stereo not shown),-3.09
3,Cn1nc(C(=O)N2CCc3ccccc3C2)c2c1-c1ccccc1S(=O)(=O)C2,10
4,O=C(Cn1cc(S(=O)(=O)N2CCCC2)c(S(=O)(=O)N2CCCC2)c1)N1CCOCC1,-6.07
5,Cc1ccc(NC(=O)CN2C(=O)N/C(=C/c3cn(C(C)C)c4ccccc34)C2=O)cc1,-2.19
6,O=C(Nc1sc2c(c1C(=O)NC1CCS(=O)(=O)C1)CCCC2)c1ccco1 (stereo not shown),0.161
7,N#Cc1ccc(NC(=O)c2ccc(Cl)cc2)cc1,0.475
8,O=c1cccc2n1C[C@H]1C[C@@H]2CN(Cc2cc(Cl)cc(Cl)c2O)C1,-0.342
9,O=C(NCCCN1CCCC1=O)c1ccc(Cn2c(SCc3ccccc3)nc3cccnc32)cc1,1.63
10,CCOc1ccc2oc(=O)cc(CN(Cc3ccco3)C3CCCC3)c2c1,0.00706
11,Cc1ccc(-n2nnc(-c3nc(-c4cccnc4)no3)c2N)c(C)c1,-3.01
12,NC(=O)/C(=C\c1ccccc1)NC(=O)c1cccc(Br)c1,-6.77
13,Cc1ccsc1C(C#N)NC(=O)[C@H](CC(C)C)NC(=O)OCc1ccccc1 (stereo partly shown),-1.41
14,COc1cccc(CN2CCN(C(=O)c3ccccc3OC)CC2)c1,-1.98
15,C/C(=N\c1ccc(N(C)C)cc1)C1=C(O)c2ccccc2C1=O,-2.24
16,COc1ccc(CN2Cc3ccccc3C2)cc1,-2.25
17,COc1ccc(CCNCc2cccs2)cc1OC,0.163
18,Cc1ccc(NC(=O)c2cc(-c3cccs3)nc3ccccc23)cc1Cl,-0.267
19,CCSc1nnc(NC(=O)c2cccc(F)c2)s1,-0.48
20,COc1ccc(CNC(=O)c2cc(S(=O)(=O)N3CCCC(C)C3)ccc2F)cc1 (stereo not shown),1.42
21,COCCNC(=O)C1=CC(c2ccc(C)cc2)=NS(=O)(=O)N1C,-1.06
22,O=C(NCc1nc(-c2ccccc2)no1)c1ccc(Br)o1,2.14

row,SMILES,% Inhibition @ 10 uM [%]
1,CCOC(=O)N1CCN(C2CCCc3c2[nH]c2ccc(C)cc32)CC1 (stereo not shown),-2.88
2,COc1ccc2c(c1)c1nc3cc4ccccc4cc3nc1n2C,-4.11
3,N#C/C(=C\c1[nH]c2ccccc2c1O)C(=N)N1CCOCC1,5.37
4,O=C(C1=C(O)C(=O)N(CCOCCO)C1c1ccccc1Cl)c1ccc(Br)cc1 (stereo not shown),-3.71
5,Cc1cc(C)c(S(=O)(=O)N2CCCCCC2)cc1S(=O)(=O)N1CCCCCC1,0.526
6,COc1cc(C(=O)OCCCn2c(=O)c3c(ncn3CCN(C)C)n(C)c2=O)cc(OC)c1OC,2.14
7,CC(CCc1ccccc1)NC(=S)Nc1cccnc1 (stereo not shown),-6.42
8,COc1ccc(CNc2nc(-c3ccco3)nn2C(=O)COc2ccccc2)cc1,1.9
9,COc1ccc(CNC(=O)c2oc3ccc4nc(N(C)C)sc4c3c2C)cc1,4.33
10,COc1ccc(C)c2sc(N(CCN(C)C)C(=O)c3ccc(Br)s3)nc12,6.55
11,O=C(Nc1ccc(Cl)cc1)Nc1nc(-c2ccccc2)cs1,0.962
12,COC(=O)c1nnn(-c2ccc(C(C)C)cc2)c1C(=O)OC,0.163
13,COc1ccccc1-c1nnc2sc(COc3ccccc3C)nn12,2.68
14,Cc1cc(C(F)F)nn1CC(=O)NC(C)C1CC2CCC1C2 (stereo not shown),7.03
15,O=C1NC(=O)C(=Cc2cn(Cc3ccccc3)c3ccccc23)C(=O)N1,4.41
16,COc1ccc2c(c1)c1c3n2CCNC3CCC1 (stereo not shown),5.8
17,CN1CCC2(CC1)CC1CC3C=CC1(CN2)O3 (stereo not shown),-7.09
18,CN1CCN(C(=O)c2ccc(N(C)S(C)(=O)=O)cc2)CC1,2.27
19,O=C(NCCCSC1CCCCC1)c1ccc(CS(=O)(=O)Cc2cccc(Cl)c2)o1,0.718
20,COc1ccc(S(=O)(=O)N(CC(=O)N2CCCCCC2)c2ccc(C)cc2)cc1Br,-1.59
21,COc1ccc(C2CC(c3ccc(Br)cc3)=NN2C(=O)CCC(=O)O)cc1OC (stereo not shown),1.65
22,O=C(NCCCc1nc2ccccc2[nH]1)c1ccc(F)cc1,0.032

row,SMILES,% Inhibition @ 10 uM [%]
1,N#CC1=C(N)OC2=C(C(=O)CCC2)C1CCc1ccccc1 (stereo not shown),2.51
2,Cc1ccccc1OCCSc1nc(-c2ccccc2)nc2cc(=O)[nH]n12,5.62
3,O=C1N=C(N2CCOCC2)S/C1=C/c1cccc2ccccc12,3.21
4,COc1cc(NC2C3CC4CC(C3)CC2C4)cc(OC)c1OC (stereo not shown),1.57
5,CCOC(=O)C1=C(C(F)(F)F)Nc2ncnn2C1c1cc(OC)c(OC)cc1OC (stereo not shown),1.73
6,CC(CCc1ccccc1)NC(=O)CCCn1ncn2c(cc3occc32)c1=O (stereo not shown),1.38
7,COc1cc2c(cc1OC)C(C(=O)N(C)Cc1ccccc1)C(c1cccnc1)N(C)C2=O (stereo not shown),2.59
8,Cc1cc(OCc2ccc(C3C(C#N)=C(N)OC4=C3C(=O)CC(C)(C)C4)o2)ccc1Cl (stereo not shown),-0.463
9,COc1cc(OC)c(CN(C)CCN(C)C)cc1Br,-1.05
10,CCOc1ccc2nc(C)c(Cc3ccc(OC)cc3)c(S)c2c1,1.72
11,Cc1ccc([N+](=O)[O-])cc1NS(=O)(=O)c1cc(Cl)ccc1Cl,1.63
12,Cc1sc2[nH]c(C(=O)c3ccccc3)nc2c1C,-1.04
13,Oc1ncnc2scc(-c3cccs3)c12,4.33
14,O=C(NCc1ccccc1)c1cc(-c2ccncc2)nc2ccc(S(=O)(=O)N3CCOCC3)cc12,-2.72
15,Cc1ccc(S(=O)Cc2ccc(C(=O)O)o2)cc1 (stereo not shown),9.23
16,CCCSCCCNC(=O)c1c(C)nn(-c2ccccc2)c1-n1cccc1,1.8
17,CCc1ccccc1NC(=O)c1ccccc1OC,-3.49
18,Nc1nonc1-n1nnc(C(=O)O)c1CSc1ccccc1,1.62
19,CCN(CC)S(=O)(=O)c1cc(C(=O)Nc2ccc(Br)cc2)ccc1C,-13.5
20,CN(C)c1ccc(-c2nc3cc(NC(=O)c4ccccc4)ccc3o2)cc1,1.62
